Measured values reported in the supplement of paper PMC10986608.
Several values for one entry are separate records, joined by “and”; a condition that tells them apart may be missing. Equal entries are not always repeated. The list shows a part of the results. Many values rest on one well or one pass, so single values are uncertain.

Tested on: Candida albicans DPL-15
Experiment: growth (OD600) after compound treatment (apparently relative to screen median) (relative growth (fraction; screen median 1.02)); DPL-15 is a caspofungin-resistant clinical isolate; higher = more fungal growth (less antifungal activity)
Conditions: 25 µM; RPMI 1640; 48 h; 30 °C

Compound	growth
COc1cc([C@H]2c3c(OC)c(O)c4oc5cc(Cl)ccc5c(=O)c4c3[C@@H]3C=C(C)CC(C)(C)[C@H]23)c2c(=O)c3ccc(Cl)cc3oc2c1O	1.16
COc1ccc2c(c1)[C@@H](NS(=O)(=O)c1ccc(Br)cc1)[C@H](C)[C@H]2c1ccccc1	1.04
C=CCC[C@@H](O)COc1cc2c(cc1C1(c3cc4c(cc3OC[C@H](O)CCC=C)OCO4)C(=O)Nc3cccc(Br)c31)OCO2	0.857
COc1cc2c(cc1OC)CN(CC1CCCN(CCc3ccccc3)C1)CC2 (configuration not stated)	1.13
COC(=O)C1=C(C)N(Cc2ccc(Cl)cc2)C(=S)NC1c1ccccc1Br (configuration not stated)	1.1
COC(=O)[C@H]1[C@H](C(=O)OC)[C@@H](c2ccc(OC)c(OC)c2)[C@@H]1c1ccc(OC)c(OC)c1	1.1
C=CC[C@]12C[C@@]3(O[C@H](C(C)C)N=C3C[C@H](c3ccc(OC)cc3)[C@H]1C)N(Cc1ccco1)C2=O	0.998
COc1ccc([C@]23[C@@H](c4ccccc4)C[C@@H](O)[C@@]2(O)c2c(F)cccc2N3C)cc1	0.883
COC(=O)C1=C(C)N(Cc2ccc(C(F)(F)F)cc2)C(NCC2CCCCC2)=NC1c1ccccc1 (configuration not stated)	0.792
CC(C)c1cc(N)n(C)n1	1.16
CCOC(=O)OC[C@H]1O[C@H](C#Cc2ccc(C(C)(C)C)cc2)C=C[C@@H]1OC(=O)OCC	0.735
C=CCCN1C(=O)[C@H]2[C@H]3c4ccccc4[C@]([C@@H](COC)OC)(c4ccccc43)[C@H]2C1=O	0.93
COc1ccc(N2C(=O)C3=C(C(C)=NCC(C)(C)N3)C2c2ccc(C)cc2)cc1 (configuration not stated)	1.04
C#Cc1cc(OC)cc(OC)c1-c1cc(OC)ccc1O	0.994
COc1ccc(N2C(=O)C3=C(C(C)=NCCN3)C2c2ccc(Br)cc2)cc1 (configuration not stated)	1.01
CO[C@@H]1[C@H](O)CC[C@]2(O)CN(CC3CC3)[C@](C)([C@H](O)CC=C(C)C)[C@@H]12	1.06
COC(=O)C/C=C/[C@H](C)[C@@H](NC(=O)[C@@H](NC(=O)OC(C)(C)C)C(C)C)c1ccccc1	1.15
COC(=O)c1cc2c(c3c4cc(F)ccc4n(S(=O)(=O)c4ccccc4)c13)C(=O)N(Cc1ccc(C)cc1)C2	0.965
CO[C@H](C(F)(F)F)[C@]12c3ccccc3[C@H](c3ccccc31)[C@@H]1C(=O)N(CCc3cc4ccccc4o3)C(=O)[C@@H]12	0.97
CC12CC/C(=C/c3cccc(n3)C(=O)NCC3(CCCCC3)CC(=O)NC1)C2 (configuration not stated)	1.34
CC(=O)N1C(=O)NC(C)=C(C#N)C1c1ccccc1 (configuration not stated)	1.15
COc1cc(O)c2c(=O)c3c(CC=C(C)C)cc(O)c(O)c3oc2c1	0.267
COC(=O)c1cc2c(c3c4ccccc4n(S(=O)(=O)c4ccccc4)c13)C(=O)N(Cc1ccc(C)cc1)C2	0.917
COC(=O)C1=C(C)N(Cc2ccccc2)C(=S)NC1c1ccc(-c2ccccc2)cc1 (configuration not stated)	0.913
Cc1ccc(CN2C(=O)c3[nH]nc(CC(C)C)c3C2c2ccc(F)cc2)o1 (configuration not stated)	0.974
COc1cc(O)c2c(OC)c3c(=O)cc(C)oc3cc2c1OC	1.16

Compound	growth
CC(C)CC1=NCC(C)(C)NC2=C1C(c1ccccc1)NC2=O (configuration not stated)	0.912
CC#CCN1c2ccccc2[C@]23C[C@@H](C(=O)OC)N(S(=O)(=O)c4ccc(Br)cc4)C2=NC(C(=O)OC)=C(C(=O)OC)[C@H]13	0.901
C[C@@H]1/C=C\CC(=O)OCCCC(=O)N[C@@H]1c1cccc(Br)c1	1.22
COc1ccc(N2C(=O)C3=C(C(CC(C)C)=NCC(C)(C)N3)C2c2ccc(C)cc2)cc1 (configuration not stated)	1.06
CCCN1C(=S)NC(c2ccc(OC)cc2)C(C(C)=O)=C1C (configuration not stated)	0.934
COc1ccc2c(c1-c1c3c(cc(Br)c1OC)CCCC3)CCCC2	1.15
CC1=C(I)[C@@]2(CCCO)c3cc4c(cc3CC[C@H]2[C@@H]1C)OCO4	0.812
CC(C)C1=NCCNC2=C1C(c1ccc3c(c1)OCO3)N(c1ccccc1)C2=O (configuration not stated)	0.962
CC(=O)C1=C(C)N(Cc2ccccc2)C(=O)N[C@H]1c1cccc(C(F)(F)F)c1	0.918
COc1ccc(OC)c2c(O)c(Br)cc(Br)c12	1.01
C#CCOC[C@@H](NC(=O)[C@@H]1C[C@@H](O)CN1C(=O)c1cccc2cnnn12)c1ccccc1	1.14
CC(=O)C1=C2C=C(C)CCN2C(=O)NC1c1ccccc1 (configuration not stated)	0.954
CCc1ccccc1-n1nc2c(c1C(C)C)C(c1ccc3c(c1)OCO3)NC2=O (configuration not stated)	0.956
COc1ccc(C2NC(=S)N(C)C(C)=C2C(C)=O)cc1 (configuration not stated)	0.993
COc1cccc2c1C1(Cc3occc(=O)c3OS(C)(=O)=O)CCCCC1=N2 (configuration not stated)	1.14
CC(=O)c1ccc(OCc2ccccc2)cc1OCC=C(C)C	0.786
CCCC(CC(C)C)OS(=O)(=O)NC(C)(C)C (configuration not stated)	1.06
CCOC(=O)c1cc2nc(/N=C(\C)N(C)C)nc(O)c2nc1C(=O)OCC	1.12
CC(C)C1=NCCNC2=C1C(c1ccccc1)N(Cc1ccccc1)C2=O (configuration not stated)	1.03
COc1ccccc1Cn1nc(CC(C)C)c2c1C(=O)NC2c1cccc(C(F)(F)F)c1 (configuration not stated)	1.01
C=CCC1=C(OC)C(CC=C)(CCC(=C)C)C(=O)C(C(=O)c2ccccc2)=C1O (configuration not stated)	0.745
COC(=O)C1=C(C)N(Cc2ccc(F)cc2)C(=S)NC1c1ccccc1F (configuration not stated)	1.01
CO[C@@H]1[C@H](O)CC[C@]2(O)CN(c3ccc4[nH]ccc4c3)[C@@H](CC=C(C)C)[C@](C)(O)[C@@H]12	0.922
COc1ccc(N2C(=O)C3=C(C(C(C)C)=NCCN3C)C2c2ccc(F)cc2)cc1 (configuration not stated)	0.984
CC(C)[C@@H]1CC[C@@H](C)C[C@@H]1NS(=O)(=O)NC(C)(C)C	1.16
CCCc1c(Cl)c2c(OC)cc(-c3c(OC)cc(O)c(C(=O)c4ccccc4)c3O)c(O)c2c(=O)n1C	1.11

Compound	growth
COc1ccc(N2C(=O)c3[nH]nc(CC(C)C)c3C2c2cccc(C(F)(F)F)c2)c(OC)c1 (configuration not stated)	1
COc1ccc(CN2CCc3nc(-c4ccc(OC)cc4)c4c(c3C2)CO[C@@H](C)C4)cc1	0.998
COC(=O)C1=C(C)N(C)C(NCc2cccc(C(F)(F)F)c2)=NC1c1ccccc1C(F)(F)F (configuration not stated)	0.962
COC[C@@H](OC)[C@]12c3ccccc3[C@H](c3ccccc31)[C@H]1[C@@H]2C(=O)N2CCCC[C@]12C	1.25
CN1CCN=C(c2ccccc2)C2=C1C(=O)N(c1ccccc1)C2c1ccccc1 (configuration not stated)	0.942
COC(=O)[C@]1([C@H]2CCC(=O)O2)CC(=O)c2c(O)ccc(Cl)c2O1	1.05
CCN1C(=S)NC(c2cccc(F)c2)C(C(=O)OC)=C1C (configuration not stated)	1.3
CC(C)Cc1n[nH]c2c1C(c1cccc(C(F)(F)F)c1)N(Cc1ccccc1)C2=O (configuration not stated)	0.946
COc1ccc(N2C(=O)C3=C(C(CC(C)C)=NCCN3)C2c2ccc(C)cc2)cc1 (configuration not stated)	0.896
Cc1cc2c(nc1C)CCCN2S(=O)(=O)c1ccc(C#N)cc1	0.944
COc1ccc(C(=O)Cn2nc(-c3ccc(F)cc3)cc2N)cc1	1.06
CC(C)Cc1n[nH]c2c1C(c1ccccc1)NC2=O (configuration not stated)	1.17
C=CCOC(=O)N[C@@H](C1CC1)[C@@H](C)/C=C/CC(=O)OC	1.11
CC1=C2CC[C@]3(C)[C@H](CC[C@@H]4[C@H]5[C@H](C(C)C)CC[C@]5(C(=O)O)CC[C@]43C)[C@@]2(C)CCC1=O	1.01
COc1cc(CO[C@H]2CC=C(c3ccccc3)O[C@@H]2CO)cc(OC)c1	0.993 and 0.9
COC(=O)c1[nH]c2ccccc2c1[C@]12CCN(C(=O)C3CC3)[C@H]1Nc1ccccc12	1.08
COC(=O)c1c(O)ccc(O)c1-c1c(O[Si](C(C)C)(C(C)C)C(C)C)cc(O)cc1O[Si](C(C)C)(C(C)C)C(C)C	0.925
COc1ccc(N2C(=O)c3c(c(C)nn3C)C2c2ccc3c(c2)OCO3)cc1 (configuration not stated)	0.871
COc1ccc(N2C(=O)c3[nH]nc(CC(C)C)c3C2c2ccccc2Cl)c(OC)c1 (configuration not stated)	0.982
COc1cc(I)c(CCN2C(=O)[C@H]3[C@H]4c5ccccc5[C@]([C@H](OC)C(F)(F)F)(c5ccccc54)[C@H]3C2=O)cc1OC	1.04
C=CCN1C(=O)C2=C(C(CC(C)C)=NCCN2C)C1c1ccc(F)cc1 (configuration not stated)	1.13
CCCCS(=O)(=O)N1CCCc2nc(-c3ccc(F)cc3)ccc21	0.958
CC(C)c1cc(Nc2cc(O)cc(O)c2C(=O)N2Cc3ccccc3C2)n(C)n1	1.02
O=c1c(OCC#Cc2ccccc2)c(-c2ccccc2)oc2ccccc12	1.09
O=C1NC(c2ccccc2)c2c(-c3ccccc3)nn(-c3ccc(OC(F)(F)F)cc3)c21 (configuration not stated)	0.873
